The campaign covered roughly 280,000 compounds. About 100 (0.036%) were called active. This list was built around the results that the source calls inconclusive (neither active nor inactive); the mix of calls is not that of the screen. Calls come from the whole dose curve; as a rule, active = well fitted inhibition curve with a large enough effect in the signal ratio, with a control signal flat (not every such curve was filed as active); inconclusive = small, poorly fitted or top-dose-only effect, or effect the other way, or a change in a side signal; inactive = no such curve, though single readings can be large or run the other way; the % refers to the signal ratio. Potencies beside an inconclusive call are fits to weak or partial responses and may not hold up. “Side channel” marks fits to a control or component signal instead of the main read-out.
Biological target: Muscleblind-like protein 1 (Homo sapiens) (UniProt Q9NR56)
Chain of UniProt Q9NR56 (Q9NR56 whole entry, looked up): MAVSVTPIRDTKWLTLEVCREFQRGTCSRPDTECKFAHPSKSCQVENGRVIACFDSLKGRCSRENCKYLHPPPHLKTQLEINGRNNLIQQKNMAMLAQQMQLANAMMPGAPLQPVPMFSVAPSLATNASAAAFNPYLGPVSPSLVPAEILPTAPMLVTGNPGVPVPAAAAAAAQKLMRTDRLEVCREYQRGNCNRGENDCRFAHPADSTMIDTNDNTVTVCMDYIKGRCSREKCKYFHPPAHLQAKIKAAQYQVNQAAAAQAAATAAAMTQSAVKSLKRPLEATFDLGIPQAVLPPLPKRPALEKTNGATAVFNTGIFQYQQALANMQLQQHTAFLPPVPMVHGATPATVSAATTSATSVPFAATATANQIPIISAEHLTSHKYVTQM
Test: qHTS Assay for Inhibitors of MBNL1-poly(CUG) RNA binding
Details: TR-FRET MBNL1-His/biotin-(CUG)12 binding, 665/545 ratio; series mostly up to 57.5 µM
Method in brief: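 Compounds (final 92 nM to 58 uM) are added to His-tagged MBNL1 and biotin-(CUG)12, then terbium anti-His antibody and streptavidin-XL665 (5 nM final). After 60 min at room temperature, the 665/545 nm ratio is read.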
Potency is the fitted concentration of half-maximal effect; tags give direction and shape of the fitted curve or compound fluorescence and quenching.

| SMILES | Potency |
| --- | --- |
| O=C(/C=C/c1cccc([N+](=O)[O-])c1)NCCc1ccc(F)cc1 | inconclusive: 0.447 µM [quencher, side channel, full curve, poor fit] |
| COC(=O)C1CCCN1S(=O)(=O)c1ccc([N+](=O)[O-])cc1 (stereo not given) | inconclusive: 12.6 µM [quencher, side channel, partial curve] |
| Cc1ccc(/C=N/NC(=O)CSc2nc3ccccc3[nH]2)o1 | inconclusive: 11.2 µM [quencher, side channel, partial curve] |
| N#Cc1ccc(-c2cccnc2)nc1SCc1ccc(Cl)c(Cl)c1 | inconclusive: 5.62 µM [quencher, side channel, single point] |
| CCCC(c1nnnn1CCOC)N1CCN(Cc2ccccc2)CC1 (stereo not given) | inconclusive: 50.1 µM [inhibitor, single point] |
| Nc1ccc(-c2cnc[nH]2)cc1[N+](=O)[O-] | inconclusive: 14.1 µM [quencher, side channel, partial curve] |
| COc1cccc(C(=O)NN=C2CCCC2)c1 | inactive |
| O=C1/C(=C\c2ccsc2)NC(=S)N1c1ccccc1 | inconclusive: 25.1 µM [quencher, partial curve] |
| Cc1sc2c3ccsc3ccc2[n+]1C | inactive |
| Cc1ccc(C2=NN(S(C)(=O)=O)C(c3cccs3)C2)cc1 (stereo not given) | inactive |
| O=C(Nc1cccnc1)C1COc2ccccc2O1 (stereo not given) | inconclusive: 158 µM [inhibitor, partial curve, poor fit] |
| O=C1C(=O)N(C2CCS(=O)(=O)C2)C(c2cccc(O)c2)/C1=C(/O)c1ccc(Cl)cc1 (stereo not given) | inconclusive: 31.6 µM [quencher, side channel, single point] |
| Cc1nccn1CC(=O)N/N=C/c1cc(Br)cs1 | inconclusive: 31.6 µM [quencher, side channel, single point] |
| O=C1CCCN1CCCNc1ncnc2c1cnn2-c1ccc(Cl)cc1 | inactive |
| C=CCn1c(COc2cccc(C)c2C)nnc1SCC(=O)N1CCN(c2ccccc2)CC1 | inconclusive: 100 µM [fluorescent, side channel, partial curve] |
| COc1ccc(-c2nn(CCC#N)cc2C(=O)Nc2cccc(C(=O)O)c2)cc1[N+](=O)[O-] | inconclusive: 28.2 µM [quencher, side channel, partial curve] |
| CN(C)C(CNc1ccc(S(C)(=O)=O)cc1[N+](=O)[O-])c1ccccc1 (stereo not given) | inconclusive: 8.91 µM [quencher, side channel, partial curve] |
| CCOc1ccc(N2CC(C(=O)NCCN3C(=O)S/C(=C\c4cccnc4)C3=O)CC2=O)cc1 (stereo not given) | inconclusive: 14.1 µM [quencher, side channel, partial curve] |
| C=CCOc1ccc(CNc2nccs2)cc1OC | inconclusive: 7.08 µM [quencher, side channel, single point] |
| O=[N+]([O-])c1cc(S(=O)(=O)N2CCCCC2)ccc1NCCCN1CCOCC1 | inconclusive: 35.5 µM [quencher, side channel, partial curve] |

| SMILES | Potency |
| --- | --- |
| CNC(=O)c1ccsc1NC(=O)c1sc2ccccc2c1Cl | inactive |
| O=C1C(=O)N(CCN2CCOCC2)C(c2ccc(F)cc2)/C1=C(/O)c1ccc(S(=O)(=O)N2CCOCC2)cc1 (stereo not given) | inconclusive: 15.8 µM [quencher, side channel, partial curve] |
| CCn1c(=O)c(C(=O)NCCc2ccc(Cl)cc2)c(O)c2ccccc21 | inactive |
| CCn1c(Sc2ccc([N+](=O)[O-])cn2)nnc1-c1ccco1 | inconclusive: 17.8 µM [quencher, side channel, partial curve] |
| Cc1cc(C)n(-c2ncc(-c3ccccc3)nn2)n1 | inconclusive: 14.1 µM [quencher, partial curve] |
| O=C(O)CNc1nc(-c2ccccc2)c2cc([N+](=O)[O-])ccc2n1 | inconclusive: 2.51 µM [quencher, side channel, partial curve] |
| CC1CCN(CC(=O)Nc2ccc(Cl)cc2[N+](=O)[O-])CC1 | inconclusive: 22.4 µM [quencher, side channel, partial curve] |
| CC1(C)CC(=O)C(N=Nc2cccc([N+](=O)[O-])c2)=C(O)C1 | inconclusive: 11.2 µM [quencher, side channel, partial curve] |
| CC(=O)N(CN1C(=O)CCC1=O)c1cccc(Cl)c1 | inconclusive: 39.8 µM [fluorescent, side channel, single point] |
| Cc1ccc(C)c(Oc2cc(F)nc(N)n2)c1 | inactive |
| O=C(NCCc1ccccc1)C1CCCN(S(=O)(=O)c2cccc3nonc23)C1 (stereo not given) | inconclusive: 8.91 µM [quencher, side channel, partial curve] |
| COc1ccc(-c2cc(C(F)(F)F)n3nc(N)nc3n2)cc1 | inconclusive: 14.1 µM [quencher, side channel, partial curve] |
| O=[N+]([O-])c1ccc(Cl)c(S(=O)(=O)n2ccnc2)c1 | inconclusive: 28.2 µM [quencher, side channel, partial curve] |
| Cc1cccc(-n2c(C)n[nH]c2=S)c1 | inactive |
| CCc1ccc(NC(=O)CC2C(=O)N(c3ccc(C)cc3)C(=O)N2CCc2ccncc2)cc1 (stereo not given) | inconclusive: 63.1 µM [inhibitor, single point] |
| Cc1cccc2c1N(CCOc1ccccc1)C(=O)C2=O | inconclusive: 22.4 µM [quencher, side channel, single point] |
| O=C(c1ccccc1Oc1ccc([N+](=O)[O-])cc1)N1CCOCC1 | inconclusive: 22.4 µM [quencher, side channel, single point] |
| Cc1ccc(Nc2ccc3nonc3c2[N+](=O)[O-])cc1 | inconclusive: 3.16 µM [quencher, side channel, full curve] |
| COc1ccc(CCN(C)Cc2ccc(OC)c(OCc3ccccc3)c2)cc1OC | inactive |
| CCCCn1c(=O)[nH]c2nc3cc(NC(C)=O)ccc3nc2c1=O | inconclusive: 2.24 µM [quencher, side channel, full curve] |
